From publication PMC4336329 (PLoS ONE, 2015) come the findings set out here.

The structures appear in SMILES notation. Out of some 310,000 compounds screened, about 2,200 (0.71%) showed an effect of 50% or more. Effects have a minus sign here. The list shows a part of the results.

The target in the assay is human ether-à-go-go-related gene (hERG) potassium channel (human, UniProt Q12809). In words: primary screen, population patch clamp on CHO cells stably expressing hERG.
human ether-à-go-go-related gene (hERG) potassium channel, sequence (Q12809 whole entry, looked up): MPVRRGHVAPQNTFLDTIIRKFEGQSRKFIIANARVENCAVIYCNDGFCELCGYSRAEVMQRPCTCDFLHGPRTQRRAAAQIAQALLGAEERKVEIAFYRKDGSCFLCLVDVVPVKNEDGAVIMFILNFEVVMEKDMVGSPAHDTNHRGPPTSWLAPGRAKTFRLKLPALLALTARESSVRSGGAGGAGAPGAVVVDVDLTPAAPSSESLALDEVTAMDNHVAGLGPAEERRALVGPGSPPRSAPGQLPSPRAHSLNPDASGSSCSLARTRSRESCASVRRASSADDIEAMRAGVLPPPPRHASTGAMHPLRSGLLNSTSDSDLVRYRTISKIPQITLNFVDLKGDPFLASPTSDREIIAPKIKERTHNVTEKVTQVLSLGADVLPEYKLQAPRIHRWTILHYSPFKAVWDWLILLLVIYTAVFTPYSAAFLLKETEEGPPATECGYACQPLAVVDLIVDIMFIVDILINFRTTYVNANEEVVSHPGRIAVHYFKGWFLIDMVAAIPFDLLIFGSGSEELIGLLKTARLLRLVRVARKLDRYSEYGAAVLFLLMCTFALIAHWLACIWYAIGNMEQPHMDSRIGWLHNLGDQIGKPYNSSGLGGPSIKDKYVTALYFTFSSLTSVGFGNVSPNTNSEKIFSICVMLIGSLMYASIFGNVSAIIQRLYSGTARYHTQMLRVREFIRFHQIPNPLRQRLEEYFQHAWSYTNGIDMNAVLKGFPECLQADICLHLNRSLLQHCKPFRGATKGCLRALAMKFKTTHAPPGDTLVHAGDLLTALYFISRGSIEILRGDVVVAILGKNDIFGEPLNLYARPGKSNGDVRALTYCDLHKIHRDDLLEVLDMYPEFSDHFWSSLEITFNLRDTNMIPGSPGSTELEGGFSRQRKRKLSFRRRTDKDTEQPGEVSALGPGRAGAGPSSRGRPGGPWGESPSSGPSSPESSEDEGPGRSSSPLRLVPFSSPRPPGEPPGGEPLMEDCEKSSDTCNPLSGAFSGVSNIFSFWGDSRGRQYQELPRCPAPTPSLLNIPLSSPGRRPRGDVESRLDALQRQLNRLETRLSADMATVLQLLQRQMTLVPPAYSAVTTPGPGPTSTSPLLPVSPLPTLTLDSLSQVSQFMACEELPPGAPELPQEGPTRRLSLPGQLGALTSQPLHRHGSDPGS
For the compound `CCOC(=O)c1ccc(NC(=O)C(C)Sc2nc(O)c(-c3ccccc3)c(=O)[nH]2)cc1` (centres unmarked), the “hERG current change (%, negative = inhibition) at 1uM” value is recorded as 13%.

For `CCOc1ccc(C(=O)NCC(=O)N2CCN(C/C=C/c3ccccc3)CC2)cc1OCC`, the “hERG current change (%, negative = inhibition) at 1uM” value is -1.35%.

As to `CC1=Nc2ccccc2N=C(NC(=O)CN2CCN(c3ccc(F)cc3)CC2)C1c1ccccc1` (centres unmarked), the “hERG current change (%, negative = inhibition) at 1uM” value is 14.2%.

In the case of `Cc1ccc(NC(=O)CN2CCN(Cc3ccccc3)CC2)c(Br)c1.Cl`, the “hERG current change (%, negative = inhibition) at 1uM” value is on record as -36.7%.

`CN(Cc1c[nH]c2ccccc12)C1CCCCC1`: the “hERG current change (%, negative = inhibition) at 1uM” value came out at 4.04%.

Regarding `Cc1cccc(NC(=S)NNC(=O)c2cccc([N+](=O)[O-])c2)c1`, the “hERG current change (%, negative = inhibition) at 1uM” value was found to be 9.77%.

`COc1ccc(N2CC(NC(=O)c3ccc4ccccc4c3)CC2=O)cc1OC` (centres unmarked): the “hERG current change (%, negative = inhibition) at 1uM” value is given as -16.2%.

For `Cc1ccc(-c2cc(C(=O)N3CCCc4ccccc43)no2)cc1`, the “hERG current change (%, negative = inhibition) at 1uM” value is reported as -75.5%.

As to `CCOC(=O)c1sc(=NC(=O)COc2ccccc2)n(C)c1C`, the “hERG current change (%, negative = inhibition) at 1uM” value worked out at 13.6%.

For the compound `O=C(O)CCCn1cc(NC(=O)c2sc3ccccc3c2Cl)cn1`, the “hERG current change (%, negative = inhibition) at 1uM” value was determined as 25.7%.

As to `Fc1ccccc1C1CCN(Cc2nc(COc3ccccc3)no2)C1` (centres unmarked), the “hERG current change (%, negative = inhibition) at 1uM” value amounted to 11.3%.

As for `Cc1nn(C)c(C)c1/C=N/NC(=O)CCn1nc(C)c([N+](=O)[O-])c1C`, the “hERG current change (%, negative = inhibition) at 1uM” value was determined as 10.3%.

As to `CC(C#N)Sc1nnc(Nc2ccccc2)s1` (centres unmarked), the “hERG current change (%, negative = inhibition) at 1uM” value is 2.64%.

Regarding `CC(NC(=O)C1CC=CCC1C(=O)O)C1CC2CCC1C2` (centres unmarked), the “hERG current change (%, negative = inhibition) at 1uM” value is recorded as 16.7%.

For the compound `COc1ccc(OCCN2CCN(C(=O)c3ccc(OC(F)F)c(OC)c3)CC2)cc1`, the “hERG current change (%, negative = inhibition) at 1uM” value is recorded as -62.6%.

Consider `Cc1ccc(C)c(Nc2cc(C)nc3ccccc23)c1`, for which the “hERG current change (%, negative = inhibition) at 1uM” value is -1.3%.

Regarding `CCOc1ccc(NC(=O)Cn2ncc3ccccc32)cc1`, the “hERG current change (%, negative = inhibition) at 1uM” value is given as 10.9%.

On to `O=C(Nc1ccc(C2=NCCN2)cc1)c1ccc(C(=O)Nc2ccc(C3=NCCN3)cc2)c(Cl)c1`, for which the “hERG current change (%, negative = inhibition) at 1uM” value came out at 2.4%.

`NC(=O)c1cc2n(n1)C(C(F)(F)F)CC(c1ccco1)N2` (centres unmarked): the “hERG current change (%, negative = inhibition) at 1uM” value stood at 1.11%.

For `CCOC(=O)c1cnc2c(OC)cccc2c1Nc1ccc2c(c1)OCCO2`, the “hERG current change (%, negative = inhibition) at 1uM” value was -3.26%.

As for `OCCC1CN(Cc2ccc3ncccc3c2)CCN1Cc1ccccc1` (centres unmarked), the “hERG current change (%, negative = inhibition) at 1uM” value was found to be 9.68%.

For the compound `COCCCN(Cc1ccco1)C(=O)Cn1ncc2c([nH]c3ccccc32)c1=O`, the “hERG current change (%, negative = inhibition) at 1uM” value is given as -5.46%.

For the compound `COc1ccc(Nc2ccc(S(=O)(=O)N3CCCCC3)cc2[N+](=O)[O-])cc1`, the “hERG current change (%, negative = inhibition) at 1uM” value worked out at 13.1%.

With `Cc1ccc(-n2ncc3c(SCc4ccccc4)ncnc32)cc1`, the “hERG current change (%, negative = inhibition) at 1uM” value is given as 4.49%.

As to `COCCn1c(SCC(=O)Nc2cccnc2Cl)nc2cc(Cl)ccc2c1=O`, the “hERG current change (%, negative = inhibition) at 1uM” value was -11.2%.

In the case of `COC(=O)c1ccc(/C=N\NC(=O)c2c(C)nc3ccc(Cl)cn23)cc1`, the “hERG current change (%, negative = inhibition) at 1uM” value is given as 17.1%.

Regarding `CC1=NN(C(N)=S)C(=O)C1N=Nc1c(C)cc(C)cc1C` (centres unmarked), the “hERG current change (%, negative = inhibition) at 1uM” value is 13.9%.

As to `Cc1cccc(N2CCN(C(=O)c3cccc(N4C(=O)C5C6C=CC(C6)C5C4=O)c3)CC2)c1C` (centres unmarked), the “hERG current change (%, negative = inhibition) at 1uM” value is 20.4%.

Take `O=C(O)Cn1nc2ccccc2n1`: the “hERG current change (%, negative = inhibition) at 1uM” value amounted to 18.7%.

With `COc1ccc(C(=O)N/N=C/c2cc(Br)ccc2O)cc1OC`, the “hERG current change (%, negative = inhibition) at 1uM” value was 14.7%.

Turning to `CC(NC(=O)COC(=O)/C=C/c1ccc([N+](=O)[O-])cc1)c1ccccc1` (centres unmarked), the “hERG current change (%, negative = inhibition) at 1uM” value is listed as -7.15%.

In the case of `Cc1oc2ccc(OC(=O)N(C)C)cc2c1C(=O)OC(C)C`, the “hERG current change (%, negative = inhibition) at 1uM” value is on record as 10.3%.

For the compound `CC(C)CN(CC(C)C)CC(O)COc1ccccc1Br.Cl` (centres unmarked), the “hERG current change (%, negative = inhibition) at 1uM” value is 10.3%.

For the compound `O=C(NC1CCCCC1)C(c1ccc(F)cc1)N(Cc1cccs1)C(=O)CN1C(=O)c2ccccc2S1(=O)=O` (centres unmarked), the “hERG current change (%, negative = inhibition) at 1uM” value is recorded as 8.39%.

For `CCOC(=O)C1C(c2ccc(O)c(OC)c2)NC(=S)NC1(O)C(F)(F)F` (centres unmarked), the “hERG current change (%, negative = inhibition) at 1uM” value was found to be 3.29%.

With `O=C(O)C1CCN(c2nc(-c3ccccc3)c3cc(Br)ccc3n2)CC1`, the “hERG current change (%, negative = inhibition) at 1uM” value stood at 10.8%.

As to `COc1ccc(/C=C2\SC(=S)N(CCCC(=O)Nc3ccc(O)cc3)C2=O)cc1`, the “hERG current change (%, negative = inhibition) at 1uM” value amounted to 7.57%.

As for `COc1cccc(NS(=O)(=O)c2cc(C)ccc2OC)c1`, the “hERG current change (%, negative = inhibition) at 1uM” value was found to be 10.9%.

Turning to `O=C1CSc2ccc(S(=O)(=O)NCc3ccc(F)cc3)cc2N1`, the “hERG current change (%, negative = inhibition) at 1uM” value came to 5.12%.

With `O=S(=O)(/N=C(/Nc1cccc2ccccc12)c1ccccc1)c1ccc(F)cc1`, the “hERG current change (%, negative = inhibition) at 1uM” value stood at 19.9%.

Turning to `FC(F)Sc1ccc(NC(=S)NCC2CCCCC2)cc1`, the “hERG current change (%, negative = inhibition) at 1uM” value stood at 9.18%.

Turning to `COc1ccc(NC(=O)c2oc3ccccc3c2NC(=O)C2CC2)c(OC)c1`, the “hERG current change (%, negative = inhibition) at 1uM” value stood at 7.93%.

For `COc1ccccc1Oc1ncnc2c1oc1ccccc12`, the “hERG current change (%, negative = inhibition) at 1uM” value is reported as 11.6%.

Regarding `O=C(NCN1CCOCC1)c1cnccn1`, the “hERG current change (%, negative = inhibition) at 1uM” value stood at 9.95%.
